According to PubChem BioAssay AID938 (National Center for Advancing Translational Sciences (NCATS), 2007):
Out of some 73,000 compounds screened, about 1,800 (2.5%) were called active. The inconclusive results got no clear call from the source; some entries with a clear call stand among them for comparison. The call rests on the fitted dose curve; in most records, active means well fitted activation curve with a large enough effect; inconclusive means small, poorly fitted or top-dose-only effect; inactive means no such curve, though single readings can be large or run the other way. Potencies of inconclusive entries are left out as doubtful fits.

Assay: qHTS Assay for Agonists of the Thyroid Stimulating Hormone Receptor: Activators of Intracellular cAMP Concentrations in Parental HEK 293; further: nearly all actives have a fitted effect of over 55% in size; on activation: % of control where 0% means no effect
Conditions: parental HEK293 CNG cAMP sensor, membrane potential fluorescence; activation: at 57.1 µM (top of the series) unless noted
Summary of the method: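 Parental HEK 293 cells stably expressing a cAMP-gated CNG channel were loaded with membrane potential dye containing 100 uM RO 20-1724 for 60 min. Compound added for 30 min; depolarization read as fluorescence intensity at 590 nm.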
Potency means the concentration at half of the fitted maximal effect; tags describe the fitted curve by direction and shape.

SMILES | Potency | activation
CCCCOc1ccc(-c2nnc(-c3ccco3)o2)cc1 | active: 20 µM | –
CC(C)(C)NC[C@H](O)COc1cccc2c1C[C@@H](O)[C@@H](O)C2 | inconclusive [activator, single point] | –
CS(=O)(=O)c1ccc2nc(NC(=O)CN3CCCCCC3)sc2c1 | inconclusive [activator, partial curve] | –
CC1=CC(C)(C)N(C(=O)c2ccc(F)cc2)c2cc3c(cc21)OCO3 | inconclusive [activator, partial curve] | –
O=C(Nc1ccccc1C(F)(F)F)c1cc(-c2ccccc2O)on1 | inconclusive [activator, single point] | –
COc1ccccc1-c1cncnc1NCCc1cnc[nH]1 | inconclusive [activator, full curve] | –
Cc1ccc(-c2nc(-c3ccccn3)no2)cc1 | inactive | –
Cc1cccc(NC(=O)C(NS(=O)(=O)c2ccc3c(c2)CCC(=O)N3)c2ccccc2)n1 (stereo unspecified) | inconclusive [activator, single point] | –
CCOC(=O)C1CCN(c2ncnc3c2oc2ccc(Br)cc23)CC1 | active: 25.1 µM | –
Cc1ccc(Cn2cnc3c(nnn3Cc3ccc(Cl)cc3)c2=O)cc1 | inconclusive [activator, partial curve] | –
c1ccc(N2CCN(c3nc4ccccc4n4nnnc34)CC2)cc1 | inconclusive [activator, single point] | –
CC1=NC(C)Cc2ccccc21 (stereo unspecified) | inactive | –
CC(=O)N1CCCc2cc(S(=O)(=O)CCC(=O)N3CCN(c4cccc(C)c4)C(C)C3)ccc21 (stereo unspecified) | inactive | –
O=C1CC(c2cccc(Cl)c2)Cc2nc(N3CCOCC3)ncc21 (stereo unspecified) | active: 5.01 µM | –
COC(=O)c1ccc2c(=O)n(C3CCCCC3)c(SCC#N)nc2c1 | active: 20 µM | –
Cc1[nH]c2ccccc2c1C(=O)CN1CCSCC1 | inactive | –
C[C@@](N)(C(=O)O)c1ccc(C(=O)O)cc1 | inconclusive [activator, single point] | –
CC1CCc2c(nc3ncnn3c2N2CCN(c3ccccc3)CC2)C1 (stereo unspecified) | active: 25.1 µM | –
CCCCNc1nc(C)nc2c1nc(-c1ccccc1)n2C1CCN(Cc2ccccc2)C1 (stereo unspecified) | inconclusive [activator, full curve] | –
O=C(CSc1nnc2scc(-c3ccc(Cl)cc3)n12)NCc1ccc2c(c1)OCO2 | inconclusive [activator, single point] | –
N/N=C1/CC(=O)NC(=O)N1 | – | inactive: -4.28% [at 11.4 µM]
O=C(CCC1CCCC1)Nc1ccon1 | inactive | –
CC(C)C(c1nnnn1C1CCCC1)N1CCN(c2ccccc2F)CC1 (stereo unspecified) | active: 15.8 µM | –
O=C(CSc1nc2ccsc2c(=O)n1Cc1ccccc1)NCc1ccco1 | inconclusive [activator, partial curve] | –

SMILES | Potency | activation
CCOC(=O)N1CCC(Nc2c(NCCCN3CCN(c4ccc(OC)cc4)CC3)c(=O)c2=O)CC1 | inconclusive [activator, single point] | –
Cc1cccc(NC(=O)C2CCN(c3nc(C)cc(C)n3)CC2)c1 | inactive | –
CCCCn1c(SCC(=O)N2CC(=O)Nc3ccccc32)nnc1-c1ccoc1C | inconclusive [activator, single point] | –
COC(=O)C(C)Sc1nc2c(c(=O)n(C)c(=O)n2C)n1Cc1cccc(C)c1 (stereo unspecified) | inconclusive [activator, single point] | –
Cc1sc2ncnc(N3CCN(c4ncccn4)CC3)c2c1C | inconclusive [activator, single point] | –
CC(C)CCNC(=O)NC(=O)CSc1nnc(-c2ccccc2Br)o1 | inconclusive [activator, single point] | –
O=C(c1cc(C(F)(F)F)cc(C(F)(F)F)c1)N1CCC[C@@]2(CCN(Cc3ccncc3)C2)C1 | inconclusive [activator, single point] | –
COC(=O)c1ccccc1NC(=O)c1noc2c1CC(C(C)(C)C)CC2 (stereo unspecified) | inconclusive [activator, single point] | –
COC(=O)c1c(F)c(F)c(NCCO)c(F)c1F | inconclusive [activator, single point] | –
CC(=O)O[C@]1(C(C)=O)CC[C@H]2[C@@H]3C=C(Cl)C4=CC(=O)[C@@H]5C[C@@H]5[C@]4(C)[C@H]3CC[C@@]21C | inconclusive [activator, single point] | –
COC(=O)c1cc2sccc2n1Cc1ccc(C)cc1 | inconclusive [activator, partial curve] | –
COC(=O)c1cccc(NC(=O)c2ccc(S(=O)(=O)N3CCN(C)CC3)cc2)c1 | inactive | –
COc1ccc(-c2noc(-c3cccc(Cl)c3)n2)cc1OC | inconclusive [activator, single point] | –
O=C1c2ccccc2-c2ncnc3c(N4CCOCC4)cc(N4CCOCC4)c1c23 | inconclusive [activator, single point] | –
O=C(NCc1ccc(F)cc1)C1CCC(=O)N1CCc1ccccc1 (stereo unspecified) | inconclusive [activator, single point] | –
O=C(CCN1CCN(CCC(=O)c2ccccc2)CC1)c1ccccc1 | inactive | –
O=C(Nc1ccc(Cl)cc1C(=O)Nc1ccncc1)c1ccco1 | inconclusive [activator, single point] | –
CC(C)(C)c1cc(CN2CCN(CCC#N)CC2)cc(C(C)(C)C)c1O | active: 7.94 µM | –
COc1ccc2oc(=O)c(-c3nnc(NCc4ccco4)s3)cc2c1 | inactive | –
Cn1c(-c2ccco2)nc2cc3ccccc3cc21 | inconclusive [activator, partial curve] | –
COc1ccc(C(C(=O)NC2CCCCC2)N(CC2CCCO2)C(=O)CNC(=O)c2ccco2)cc1 (stereo unspecified) | inactive | –
N#Cc1cn(Cc2ccccc2)c2ccccc12 | inconclusive [activator, single point] | –
O=C(NCCCN1CCCC1=O)c1ccc2c(c1)ncn2C1CCCCC1 | inconclusive [activator, single point] | –
Cc1cccc(NC(=O)CSc2nnc(-c3ccccc3)n2N)c1 | inactive | –

SMILES | Potency | activation
O=C(OCc1nnc(-c2ccccc2)o1)c1cn(-c2ccccc2)nc1-c1ccccc1 | inactive | –
Cc1ccc2nc(N3CCN(C(=O)c4cccs4)CC3)c(C#N)cc2c1 | inconclusive [activator, partial curve] | –
O=c1oc2ccccc2n1CSc1nc2ccccc2s1 | active: 25.1 µM | –
COc1ccc(C(C)=O)cc1COC(=O)c1ccc(OCc2c(C)noc2C)cc1 | inconclusive [activator, single point] | –
COc1cccc(CCc2ccccc2OCC[C@@H]2C[C@@H](O)CN2C)c1 | inconclusive [activator, partial curve] | –
CC(C)N=c1cc2n(-c3ccc(Cl)cc3)c3ccccc3nc-2cc1Nc1ccc(Cl)cc1 | inactive | –
CCn1c(N2CCN(S(=O)(=O)c3ccccc3C(F)(F)F)CC2)nc2ccccc21 | inconclusive [activator, single point] | –
COCCNc1cc(-c2ccccc2C(F)(F)F)ncn1 | active: 0.316 µM | –
COc1cccc(NC(=O)CN2CCN(c3ccccc3F)CC2)c1 | inconclusive [activator, partial curve] | –
C#CCSc1nc(-c2cccs2)ccc1C#N | inconclusive [activator, single point] | –
COc1cccc(C(=O)NC2CCN(C(=O)N3CCCCC3)CC2)c1 | inconclusive [activator, single point] | –
COc1ccc(N2C(=O)C3CCCN3C2c2cc(OC)c(OC)c(OC)c2)cc1 (stereo unspecified) | inconclusive [activator, partial curve, poor fit] | –
Cc1cccc(OCC(=O)N(Cc2cccs2)C2CCS(=O)(=O)C2)c1C (stereo unspecified) | inconclusive [activator, single point] | –
CC(c1nnnn1C1CCCCC1)N(Cc1ccccc1)Cc1cccnc1 (stereo unspecified) | inconclusive [activator, single point] | –
O=C1c2ccccc2C(=O)N1Cc1nn2c(-c3ccc(Cl)cc3)nnc2s1 | inactive | –
C/C=C/Cn1c(SCc2ccc(Cl)cc2)nc2c1c(=O)[nH]c(=O)n2C | active: 25.1 µM | –
COc1ccc(NC(=O)N2CC[C@@]3(CCCN(C(=O)c4cccc(F)c4)C3)C2)cc1 | inactive | –
COc1ccc(-n2c(=O)c(C)nc3cnc(Nc4ccccc4)nc32)cc1 | inconclusive [activator, single point] | –
CC(=O)NCCn1c(SCC(=O)NCc2ccco2)nc2ccccc2c1=O | inconclusive [activator, single point] | –
CC(C)[C@@H](CC(=O)N[C@@H]1CCNC[C@H]1C(=O)N[C@H](CC(=O)N[C@@H](CCC(=O)O)CC(=O)O)Cc1ccccc1)NC(=O)C[C@H](Cc1c[nH]c2ccccc12)NC(=O)[C@@H]1CNCC[C@H]1N | inconclusive [activator, single point] | –
CN(Cc1ccco1)c1ncnc2ccc(-c3ccccc3Cl)cc12 | inconclusive [activator, partial curve] | –
Cc1ccc(OCC(=O)N2CCN(C(=O)Cc3ccccc3)CC2)cc1 | inactive | –
COc1ccc(-n2nnc3c(=O)n(C/C=C/c4ccccc4)cnc32)cc1 | inconclusive [activator, partial curve] | –
